According to the supplement of paper PMC10126150:
Values marked as one replicate rest on one cluster of the flow cell; about a third of the high ones do not repeat.

Test system: ATP
Test: switch fluorescence ratio, 500 uM ATP over buffer (Cy3 cluster intensity, sum of 5 cycles each) (fold (ratio)); higher = stronger signal-on switching upon ATP binding; sequences stand for … in TCGTCGGCAGCGTCAGATGTGTATAAGAGACAGTTTTTTTTTTTTTTTTTTTTTTTTT…TC
Details: aptamer strand: ATP DNA aptamer (quencher-CACCTGGGGGAGTATTGCGGAGGAAGG + anchor), 100 nM annealed; ATP concentration: 500 uM; one replicate
In short: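 Five buffer/ATP imaging cycles were run on Cy3-labelled switching-strand clusters on a modified Illumina MiSeq flow-cell, with NaOH stripping and re-annealing between cycles. In each cycle, clusters annealed to 100 nM quencher-labelled ATP aptamer were imaged in selection buffer, then after 15 min with 500 uM ATP at 22 °C. Per cluster, the fluorescence ratio is summed target-cycle over summed buffer-cycle Cy3 intensity, averaged per switch-domain sequence. Only clusters within 100-1000 RFU were kept.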
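Note: ATP exposure 15 min at 22 °C before imaging.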

ACCTCCGAAG gave a switch fluorescence ratio of 5.99.
TCATGTTAGA was tested, and the switch fluorescence ratio was 1.01.
Sequence ACTGGGACTT has a switch fluorescence ratio of 1.09.
With CGCCGATAGT the switch fluorescence ratio was 1.07.
Work on CAGTGGCGT yielded a switch fluorescence ratio of 0.971.
In the case of TTGTAAATGG, the switch fluorescence ratio is reported as 0.975.
For TGCTTCCGGC, the switch fluorescence ratio was 1.06.
TCCATGAGAT showed a switch fluorescence ratio of 0.942.
With ACTGTAGTTA the switch fluorescence ratio was 1.12.
GGTAGCTTAT was tested, and the switch fluorescence ratio was 0.937.
Work on CCAAGCACCC yielded a switch fluorescence ratio of 2.23.
ATAGTACCAA was tested, and the switch fluorescence ratio was 1.05.
ATTGAGGTCA gave a switch fluorescence ratio of 1.01.
AATAATTGAG was tested, and the switch fluorescence ratio was 0.974.
Sequence GGGCTCTGCA has a switch fluorescence ratio of 1.06.
AATTTCACGA gave a switch fluorescence ratio of 1.05.
GTCGCAGTCA was tested, and the switch fluorescence ratio was 1.01.
Sequence AAAATCTCCA has a switch fluorescence ratio of 1.03.
In the case of CAGCTGAGA, the switch fluorescence ratio is reported as 1.01.
In the case of TGTATTGCGT, the switch fluorescence ratio is reported as 0.985.
GGAGGGCCTA showed a switch fluorescence ratio of 1.
TCCTTTCCTT was tested, and the switch fluorescence ratio was 1.04.
CAAAGGTTTT gave a switch fluorescence ratio of 1.01.
Sequence AACTTCCACG has a switch fluorescence ratio of 1.05.
Sequence CAGCGCCCC has a switch fluorescence ratio of 1.1.
For CTGCTCCC, the switch fluorescence ratio was 1.11.
With CAATTCAGCA the switch fluorescence ratio was 1.03.
In the case of CTTGGGGGG, the switch fluorescence ratio is reported as 0.968.
TAAACCGAC showed a switch fluorescence ratio of 3.01.
Work on GAATGGGT yielded a switch fluorescence ratio of 1.01.
For TCGGCTAAG, the switch fluorescence ratio was 0.991.
With GATCTGAGAA the switch fluorescence ratio was 0.986.
In the case of TCTGTTGTTT, the switch fluorescence ratio is reported as 0.996.
GCAATAGTAG gave a switch fluorescence ratio of 1.41.
For CCTCTCTGTT, the switch fluorescence ratio was 0.998.
CAAGTGTTT was tested, and the switch fluorescence ratio was 1.02.
With AATAAGCCAA the switch fluorescence ratio was 0.983.
For AGATGAACAG, the switch fluorescence ratio was 0.993.
TGTACTAAGA showed a switch fluorescence ratio of 1.
With TAAACCGGGA the switch fluorescence ratio was 1.08.
With ATTGACTTTG the switch fluorescence ratio was 0.98.
In the case of GTTGCTATAA, the switch fluorescence ratio is reported as 1.01.
Sequence TATATTCCGT has a switch fluorescence ratio of 1.05.
Sequence GCTTTTTCTC has a switch fluorescence ratio of 0.983.
With TAAGAGCGC the switch fluorescence ratio was 0.992.
For TCCCGACATA, the switch fluorescence ratio was 1.1.
Sequence GGAATAGGTG has a switch fluorescence ratio of 1.15.
For TTAAGATTAG, the switch fluorescence ratio was 0.996.
For GACTCTGGAC, the switch fluorescence ratio was 1.23.
GTCTCTCGA was tested, and the switch fluorescence ratio was 0.964.
Work on GGGCCGTGCT yielded a switch fluorescence ratio of 1.02.
Work on CTTCTCGGCC yielded a switch fluorescence ratio of 1.14.
GTATTTGGCA was tested, and the switch fluorescence ratio was 0.99.
With ACAGTGGACA the switch fluorescence ratio was 1.01.
In the case of CGCTGTTACT, the switch fluorescence ratio is reported as 1.87.
Work on GCAGGTTGTT yielded a switch fluorescence ratio of 1.02.
In the case of GTTCCTGT, the switch fluorescence ratio is reported as 0.941.
Sequence CCACAGTCTT has a switch fluorescence ratio of 1.37.
GTTACAGCTG gave a switch fluorescence ratio of 1.04.
TATTACGAG was tested, and the switch fluorescence ratio was 1.04.
TTTAGGACG was tested, and the switch fluorescence ratio was 0.925.
Work on TTGCAACTAC yielded a switch fluorescence ratio of 2.18.
For TGCTGGATGC, the switch fluorescence ratio was 0.99.
In the case of CCCTATCCGA, the switch fluorescence ratio is reported as 1.08.
Sequence GAGAGCACTA has a switch fluorescence ratio of 1.08.
For TATGTGCAG, the switch fluorescence ratio was 1.08.
With CAGGGACCGC the switch fluorescence ratio was 1.06.
In the case of GTGAGTATG, the switch fluorescence ratio is reported as 0.947.
TGGCTGTGTG showed a switch fluorescence ratio of 0.983.
Work on TATGTGCGGC yielded a switch fluorescence ratio of 1.01.
GGTGGTAATA gave a switch fluorescence ratio of 0.962.
TATGAGGCCT was tested, and the switch fluorescence ratio was 0.997.
TGGATTACCG showed a switch fluorescence ratio of 1.02.
For GTTAGAGTGT, the switch fluorescence ratio was 0.994.
With CTGTCGATCG the switch fluorescence ratio was 1.03.
Work on GCCTGGAGCA yielded a switch fluorescence ratio of 1.1.
CTAGATACTC gave a switch fluorescence ratio of 3.1.
Work on TCAGGTCAGG yielded a switch fluorescence ratio of 1.06.
Work on AAGCCCTGTA yielded a switch fluorescence ratio of 0.975.
Work on AAGCTGGTAG yielded a switch fluorescence ratio of 1.03.
Work on CACTTATCAA yielded a switch fluorescence ratio of 1.05.
CGTAATAGGC was tested, and the switch fluorescence ratio was 1.45.
Work on TTTGTATTTC yielded a switch fluorescence ratio of 0.962.
TGTAGCTATT gave a switch fluorescence ratio of 1.1.
AATAGAGTTT gave a switch fluorescence ratio of 1.03.
With GCGCCTAAGA the switch fluorescence ratio was 1.07.
For GGATAAAGCA, the switch fluorescence ratio was 1.07.
For CTCATTTTCC, the switch fluorescence ratio was 1.09.
AAGCTGCTGT showed a switch fluorescence ratio of 1.
In the case of TGAGGTCTAG, the switch fluorescence ratio is reported as 0.979.
Sequence AAAATCAGAT has a switch fluorescence ratio of 1.01.
With GCCCCTGAGA the switch fluorescence ratio was 1.08.
Sequence TAAGACGGA has a switch fluorescence ratio of 1.04.
With ATACTCATGG the switch fluorescence ratio was 0.972.
Sequence GGCGCGAAAC has a switch fluorescence ratio of 2.27.
In the case of GGTGATAGGC, the switch fluorescence ratio is reported as 0.953.
CGCCTTGTGT gave a switch fluorescence ratio of 0.979.
TTCCCCCATG gave a switch fluorescence ratio of 3.29.
GCCATGGACT showed a switch fluorescence ratio of 1.03.
Sequence GGGTAGGCCA has a switch fluorescence ratio of 0.979.
CCGCACAGA was tested, and the switch fluorescence ratio was 5.03.
TGGCACTCTC gave a switch fluorescence ratio of 1.15.
GCCCTTTATG gave a switch fluorescence ratio of 0.972.
Work on TGGCTCTAAG yielded a switch fluorescence ratio of 1.
ATCACGCTTC showed a switch fluorescence ratio of 1.1.
In the case of CCTGTAAGTC, the switch fluorescence ratio is reported as 1.09.
Work on TCATGCGTCT yielded a switch fluorescence ratio of 0.917.
Work on AGATACGAGC yielded a switch fluorescence ratio of 1.05.
TGGAGTAAGT showed a switch fluorescence ratio of 1.03.
With AATCATGTTT the switch fluorescence ratio was 0.947.
With TGTCATCAAT the switch fluorescence ratio was 0.948.
For GTCAGCATCG, the switch fluorescence ratio was 1.05.
TTGTGTGTG gave a switch fluorescence ratio of 0.995.
GACGCAACTT was tested, and the switch fluorescence ratio was 3.11.
For ATAATCATTG, the switch fluorescence ratio was 1.01.
Work on ATTAGTTAGG yielded a switch fluorescence ratio of 0.987.
AACCGGGTTT was tested, and the switch fluorescence ratio was 0.989.
For ACCGTTGGGC, the switch fluorescence ratio was 0.946.
ATAATGCGCG gave a switch fluorescence ratio of 0.959.
For CGCTACGGTA, the switch fluorescence ratio was 1.13.
Work on AATTTTGCCC yielded a switch fluorescence ratio of 0.981.
In the case of AGGAATTCTC, the switch fluorescence ratio is reported as 1.04.
CTATCTACAC was tested, and the switch fluorescence ratio was 1.06.
CACCGAGAAT was tested, and the switch fluorescence ratio was 1.03.
In the case of CAGCGGTGG, the switch fluorescence ratio is reported as 1.01.
Work on AGTCAGGGCA yielded a switch fluorescence ratio of 0.983.
TCAGAAGGTT gave a switch fluorescence ratio of 1.13.
With AACTATACGG the switch fluorescence ratio was 1.18.
For CTTTGATAGG, the switch fluorescence ratio was 1.01.
GCACGTGGGT showed a switch fluorescence ratio of 1.06.
Sequence TAAGCCGGGA has a switch fluorescence ratio of 1.03.
Sequence GCGGCCTCAA has a switch fluorescence ratio of 0.982.
TGCAATTGGA showed a switch fluorescence ratio of 1.01.
Sequence GTCCCTCGGA has a switch fluorescence ratio of 0.952.
TGCAGCCGAA showed a switch fluorescence ratio of 1.03.
Sequence CAGTTTGATA has a switch fluorescence ratio of 0.994.
TCATTAAAGC gave a switch fluorescence ratio of 0.996.
TATACTAAGC gave a switch fluorescence ratio of 1.04.
TAAAACTCAT showed a switch fluorescence ratio of 1.03.
In the case of TCCATTGGTT, the switch fluorescence ratio is reported as 0.987.
CACATTGGTC gave a switch fluorescence ratio of 0.99.
Work on TTTGAGCTCG yielded a switch fluorescence ratio of 1.01.
Sequence CCCCGACCAA has a switch fluorescence ratio of 4.69.
With TTCTACCCAC the switch fluorescence ratio was 1.57.
For CTACCCAACG, the switch fluorescence ratio was 1.21.
Work on TTAGAGAT yielded a switch fluorescence ratio of 1.01.
With CGGCACGGAC the switch fluorescence ratio was 1.18.
For AGAGCAAACA, the switch fluorescence ratio was 1.13.
Work on CTCTCAGGGT yielded a switch fluorescence ratio of 1.13.
Sequence ATCAACAGTT has a switch fluorescence ratio of 0.935.
TGCCGTTTAG showed a switch fluorescence ratio of 1.03.
Work on TTAAGGCGAG yielded a switch fluorescence ratio of 0.967.
Sequence TATGCTTAAA has a switch fluorescence ratio of 0.993.
For CCAATAGTTT, the switch fluorescence ratio was 1.02.
For AAGTGTTTTG, the switch fluorescence ratio was 0.974.
GCATCACATT was tested, and the switch fluorescence ratio was 0.986.
Sequence TGGTGTTGAG has a switch fluorescence ratio of 0.989.
Sequence CCTGCGGCGG has a switch fluorescence ratio of 1.42.
For ACTTAGTTAT, the switch fluorescence ratio was 0.98.
In the case of AGGTTGACGT, the switch fluorescence ratio is reported as 1.
With AACTAATTAG the switch fluorescence ratio was 1.01.
TAGCTCATGG was tested, and the switch fluorescence ratio was 0.982.
AGTGTGAGGA showed a switch fluorescence ratio of 1.01.
GAATCAGGCG was tested, and the switch fluorescence ratio was 1.04.
GCGAAAATCA showed a switch fluorescence ratio of 0.992.
Work on GCGACTGC yielded a switch fluorescence ratio of 1.07.
GAAATGCACG was tested, and the switch fluorescence ratio was 0.947.
For CTCTACCCGG, the switch fluorescence ratio was 1.25.
GGCGTTGTAG was tested, and the switch fluorescence ratio was 1.06.
TAATGATAGC gave a switch fluorescence ratio of 1.03.
GCTACCTTGT gave a switch fluorescence ratio of 1.01.
TTGCCAGGCA was tested, and the switch fluorescence ratio was 0.984.
Work on AAACAGCCAG yielded a switch fluorescence ratio of 1.02.
AAAAGTTTCA gave a switch fluorescence ratio of 1.
Sequence AATACGAGTT has a switch fluorescence ratio of 1.06.
GATTTTCGGG showed a switch fluorescence ratio of 0.991.
Sequence TCTAGAAGAT has a switch fluorescence ratio of 0.974.
Work on GCTCTTATGC yielded a switch fluorescence ratio of 1.
TTCGCTTGTT showed a switch fluorescence ratio of 1.01.
Work on ATGTTACAT yielded a switch fluorescence ratio of 1.03.
With GCCCGTGGCA the switch fluorescence ratio was 0.982.
CGGCTTGCTC gave a switch fluorescence ratio of 1.05.
Work on CTCGTGTTGT yielded a switch fluorescence ratio of 0.945.
For AGTATAGTTA, the switch fluorescence ratio was 1.01.
CGGGAGACCA showed a switch fluorescence ratio of 0.969.
GCTGCTAGGC gave a switch fluorescence ratio of 0.976.
CCTTGGCACT was tested, and the switch fluorescence ratio was 2.38.
GGATCCAGAG gave a switch fluorescence ratio of 0.974.
Sequence AGGAATCACC has a switch fluorescence ratio of 0.982.
GGACGGTTCC gave a switch fluorescence ratio of 1.
For AGAAGGTTGA, the switch fluorescence ratio was 1.
GGCCCAATTT was tested, and the switch fluorescence ratio was 1.01.
In the case of CGAGTTAACA, the switch fluorescence ratio is reported as 1.01.
GGGCAGGGAC gave a switch fluorescence ratio of 1.01.
TGCACCGGCG was tested, and the switch fluorescence ratio was 0.975.
CTGTGGCAA was tested, and the switch fluorescence ratio was 3.76.
Work on GTCTAAGCGC yielded a switch fluorescence ratio of 1.01.
Work on AGCGTTATTA yielded a switch fluorescence ratio of 1.
TGGCTCCGAT was tested, and the switch fluorescence ratio was 1.26.
Work on ATAGTCTGCT yielded a switch fluorescence ratio of 1.05.
For GGAGGGTAAT, the switch fluorescence ratio was 1.01.
